Here are results for one molecule from patent publication US20250026838A1.

For the assay, the target named is Human Galectin-3 (Gal3) protein (human) (UniProt P17931). The experiment in a line: competition ELISA, hGal3 coated; competitor: biotinylated aggregated phospho-tau.
UniProt P17931, sequence (P17931 whole entry): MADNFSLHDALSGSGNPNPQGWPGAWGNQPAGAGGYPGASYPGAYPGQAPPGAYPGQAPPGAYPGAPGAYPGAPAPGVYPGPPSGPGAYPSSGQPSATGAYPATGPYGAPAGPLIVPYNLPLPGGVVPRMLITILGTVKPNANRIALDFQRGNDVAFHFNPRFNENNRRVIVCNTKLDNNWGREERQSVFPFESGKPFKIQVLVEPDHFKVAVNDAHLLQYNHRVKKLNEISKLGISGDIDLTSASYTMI

B1: 847.26F5-hIgG4(S288P) (antibody)
heavy: QIQLVQSGPEVKKPGETVKISCKASGYIFTNYGMNWVKQAPGKGLKWMGWINTYTGEPTYTDDFKGRFAFSLETSASTAYLQINNLKNEDTATYFCAKFGNYVGAMDYWGQGTSVTVSSASTKGPSVFPLAPCSRSTSESTAALGCLVKDYFPEPVTVSWNSGALTSGVHTFPAVLQSSGLYSLSSVVTVPSSSLGTKTYTCNVDHKPSNTKVDKRV[human IgG4 Fc with S228P (EU numbers) skipped]
light: EIKMNQSPSSLSASLGDTITITCHASQNINVWLSWYQQKPGNIPKLLIYKASNLHTGVPSRFSGSGSGTGFTLTISSLQPEDIATYYCQQGQSYPYTFGGGTKLELKRTVAAPSVFIFPPSDEQLKSGTASVVCLLNNFYPREAKVQWKVDNALQSGNSQESVTEQDSKDSTYSLSSTLTLSKADYEKHKVYACEVTHQGLSSPVTKSFNRGEC
For the molecule B1, the blocking efficacy is > 70%.
